In publication PMC4336329 (PLoS ONE, 2015):
The whole screen tested about 310,000 compounds, of which about 2,200 (0.71%) showed an effect of 50% or more. The effect is printed as a negative number. Some of the results follow.

molecular target: human ether-à-go-go-related gene (hERG) potassium channel (human, UniProt Q12809); assay: primary screen, population patch clamp on CHO cells stably expressing hERG
Sequence (Q12809 whole entry, looked up): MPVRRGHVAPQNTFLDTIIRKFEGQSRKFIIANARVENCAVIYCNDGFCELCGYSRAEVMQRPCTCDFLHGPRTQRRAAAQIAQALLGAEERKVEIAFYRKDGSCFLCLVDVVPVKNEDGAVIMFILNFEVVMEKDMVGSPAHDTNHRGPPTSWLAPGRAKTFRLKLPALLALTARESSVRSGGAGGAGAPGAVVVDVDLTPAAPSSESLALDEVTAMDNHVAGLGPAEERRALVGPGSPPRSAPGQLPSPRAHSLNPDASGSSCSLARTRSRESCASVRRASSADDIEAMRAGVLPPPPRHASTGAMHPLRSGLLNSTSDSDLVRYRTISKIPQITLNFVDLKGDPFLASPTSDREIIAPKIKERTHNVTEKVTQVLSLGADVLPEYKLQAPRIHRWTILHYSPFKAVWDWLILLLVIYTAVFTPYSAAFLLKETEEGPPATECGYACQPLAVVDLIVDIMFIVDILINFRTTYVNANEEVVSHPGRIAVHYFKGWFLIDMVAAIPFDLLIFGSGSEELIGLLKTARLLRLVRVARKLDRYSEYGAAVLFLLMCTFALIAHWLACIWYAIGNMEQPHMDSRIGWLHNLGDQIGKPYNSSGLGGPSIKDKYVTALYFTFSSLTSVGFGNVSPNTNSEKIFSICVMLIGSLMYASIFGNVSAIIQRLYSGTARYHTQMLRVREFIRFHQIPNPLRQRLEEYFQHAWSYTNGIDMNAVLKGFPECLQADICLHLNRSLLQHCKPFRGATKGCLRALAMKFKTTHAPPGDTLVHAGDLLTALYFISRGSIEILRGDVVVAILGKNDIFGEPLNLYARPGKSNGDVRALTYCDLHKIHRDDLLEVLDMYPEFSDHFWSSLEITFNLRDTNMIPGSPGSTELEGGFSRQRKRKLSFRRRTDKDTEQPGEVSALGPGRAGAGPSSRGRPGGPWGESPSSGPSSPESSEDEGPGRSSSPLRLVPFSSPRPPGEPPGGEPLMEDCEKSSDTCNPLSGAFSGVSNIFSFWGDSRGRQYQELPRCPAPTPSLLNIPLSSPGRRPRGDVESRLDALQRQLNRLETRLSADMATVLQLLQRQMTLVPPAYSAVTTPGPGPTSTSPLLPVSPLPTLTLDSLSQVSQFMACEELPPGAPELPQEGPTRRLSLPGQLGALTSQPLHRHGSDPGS

SMILES	hERG current change (%, negative = inhibition) at 1uM
COc1ccc(-c2ccc(SCC(=O)NCc3ccco3)nn2)cc1	2.77%
O=C(COC(=O)CNS(=O)(=O)c1ccc(F)c(F)c1F)NC1CCCC1	3.05%
COc1ccc(OCCOCCN2CCOCC2)cc1	13.8%
O=C(CN1CCNC(=O)C1)NCCc1ccc(Cl)cc1Cl	-0.179%
c1ccc(-n2ncc3c2ncn2nc(CSc4nc5ccccc5s4)nc32)cc1	14.3%
CC1CC(C)CN(C(=O)Nc2ccccc2F)C1 (stereo not drawn)	9.24%
COc1ccc(C(=O)C[n+]2cccc(C)c2)cc1.[Br-]	12.8%
COc1ccc(CN2C(=O)CCCc3ccccc32)cc1	11.9%
Cc1cccc(OCCC(=O)NCC(c2ccccc2)N(C)C)c1 (stereo not drawn)	9.58%
CC(=O)Nc1ccc(NC(=O)c2ccc(Cn3cc(Cl)cn3)cc2)cc1	3.13%
CC(=O)c1sc(NC(=O)COc2ccc(Br)cc2)nc1C	13%
Cc1ccccc1NS(=O)(=O)c1cc(C(=O)NCCC2=CCCCC2)ccc1Cl	3.5%
O=C(CSc1nnc2ccccn12)NNC(=O)c1ccccc1	11.4%
COC(=O)Cn1c(O)c(N=NC(=O)CNC(=O)COc2cccc(C)c2)c2ccccc21	1.15%
COC(=O)Nc1ccc2c(c1)N(C(=O)CCN1CCN3CCCC3C1)c1ccccc1S2.Cl (stereo not drawn)	-13.3%
O=C(CCN1C(=O)c2ccccc2C1=O)NC(=S)Nc1ccccc1Cl	5.29%
COc1ccc(C(=O)CCC(=O)Nc2cccnc2)cc1OC	14.2%
S=C(NCCc1ccccn1)Nc1ccccc1	6.24%
COc1cc(C(=O)NCCCNc2nc3cc(C)cc(C)c3cc2C#N)cc(OC)c1OC	10.6%
O=C(CSCc1ccc(Br)cc1)Nc1ccc(S(=O)(=O)N2CCCCCC2)cc1	11.8%
CCSc1cc(Cl)nc(N)n1	10.4%
CC1CCN(C(=O)Cn2c(=O)c3cccn3c3ccccc32)CC1	4.26%

SMILES	hERG current change (%, negative = inhibition) at 1uM
COC(=O)c1ccc(N2C(=O)c3cc(N4CCOCC4)c([N+](=O)[O-])cc3C2=O)cc1	8.91%
Cc1ccc(N=Cc2nc(-c3ccco3)oc2O)cc1	6.76%
COc1ccc(OC)c(-c2cc(C(=O)N/N=C(\C)c3cccnc3)c3ccccc3n2)c1	-25.3%
COC(=O)c1ccc2c(=O)[nH]c(CSc3nnc(C(F)(F)F)n3C)nc2c1	17.8%
COc1cc(OC)cc(C(=O)NNC(=O)c2cc3c(s2)CCCC3)c1	17.1%
N/C(=N\OCc1ccc([N+](=O)[O-])cc1)c1ccccn1	9.75%
COc1cc(/C=C2/NC(=O)N(CC(=O)Nc3ccc(C)cc3)C2=O)ccc1Oc1ccc([N+](=O)[O-])cn1	9.21%
COc1ccccc1CNC(=O)c1ccc(Cl)c(NC2=NC3CS(=O)(=O)CC3S2)c1 (stereo not drawn)	7.81%
Cc1cc(C)cc(NC(=S)NC2CC3CCCC(C2)N3C2CC2)c1 (stereo not drawn)	-32%
COc1cccc(/C=C/C(=O)OCC(=O)Nc2cccc(S(=O)(=O)N(C)C)c2)c1	5.69%
O=C(C1CSC2(c3ccc(F)cc3)CCC(=O)N12)N1CCCCCC1 (stereo not drawn)	-12.1%
CCCN(CCC)CCNS(=O)(=O)c1ccc2c(c1)CCN2C(=O)C1CCC1	0.216%
O=C(Nc1ccn(Cc2c(F)c(F)c(F)c(F)c2F)n1)c1cccc(Cn2cc([N+](=O)[O-])cn2)c1	8.85%
CC(C)CCC1(CCc2ccncc2)C(=O)NC(=O)NC1=O	-7.04%
Cc1cccc(-n2c(O)c(/C=N/Nc3nc4c(c(=O)n(C)c(=O)n4C)n3C)c(=O)[nH]c2=S)c1	6.01%
O=C(OCC(=O)N1CCN(Cc2ccccc2)CC1)c1ccc(Cl)cc1	-21%
CCNC(=S)NNC(=O)c1cccn(Cc2ccc(Cl)cc2)c1=O	8.29%
Cc1ccc(S(=O)(=O)N(C)C)cc1NC(=O)C1CCCCC1	-1.95%
CCOc1ccc(-c2nc(C#N)c(N3CCOCC3)o2)cc1	8.72%
CCn1c(COc2cccc3cccnc23)nnc1SCC(=O)OC	5.96%
Cc1oc2c(c1C(=O)O)C(=O)c1ccccc1C2=O	7.47%
CC(=O)C1=C(O)C(=O)N(c2nccs2)C1c1ccc(Br)cc1 (stereo not drawn)	13.3%

SMILES	hERG current change (%, negative = inhibition) at 1uM
O=C(Cn1c(=O)[nH]c2ccsc2c1=O)NC1CCCCCC1	7.77%
Cc1ccc(OCc2cc(C(=O)NCC3COCCO3)no2)cc1C (stereo not drawn)	8.44%
Cn1c(SCc2nc3ccccc3c(=O)[nH]2)nc2ccccc21	15.2%
Cl.O=C(NCC(c1cccs1)N1CCOCC1)c1ccccc1NS(=O)(=O)c1ccc(Cl)cc1 (stereo not drawn)	14.1%
COc1cc(S(=O)(=O)NCc2cccnc2)c(OC)cc1Br	24.5%
Cc1cc2n(n1)C(c1ccccc1)Nc1ccccc1-2 (stereo not drawn)	14.8%
CCCc1nnc(NC(=O)CCC(=O)NC2CC2)s1	13.7%
CC(=O)Nc1ccc(S(=O)(=O)N2CCN=C2SCc2ccccc2C)cc1	10.1%
CC(=O)c1cnc2cc(-c3cccc(Br)c3)nn2c1C	9.39%
Cc1ccc(N2C(=O)N(CC(=O)Nc3ccccc3C(F)(F)F)C(=O)C2C)cc1 (stereo not drawn)	5.43%
CCS(=O)(=O)c1ccc(-c2csc(-c3ccc(Cl)cc3)n2)c(Cl)c1Cl	14.3%
COc1cccc2cc(C(=O)NC(C)c3ccccc3)c(=O)oc12 (stereo not drawn)	12.6%
O=c1ccc(-c2ccccc2)nn1Cc1ccccc1	11.1%
O=C(NC(=S)Nc1ccc(S(=O)(=O)Nc2nccs2)cc1)c1ccccc1	18.2%
NNC(=O)CNC(c1ccccc1)c1cc(Br)ccc1N (stereo not drawn)	7.32%
C=CCNC(=O)NC(=O)COC(=O)c1ccccc1Sc1ccc(C(F)(F)F)cc1[N+](=O)[O-]	15.3%
CC1(C)CC(=O)c2c(O)cc(OCC(=O)NCCc3ccc(S(N)(=O)=O)cc3)cc2O1	-8.77%
Cc1nn(Cc2c(Cl)cccc2Cl)c(C)c1NC(=O)Cn1nc([N+](=O)[O-])c(Cl)c1C	13.9%
O=C(c1cccc(Cl)c1)N1CCC(N2CCC(C(=O)N3CCOCC3)CC2)CC1	-1.41%
CC(=O)Nc1ccc(S(=O)(=O)NCCc2csc(C)n2)cc1	2.8%
CCOc1ccc(N2CC(C(=O)Nc3ccccc3N3CCOCC3)CC2=O)cc1 (stereo not drawn)	4.41%
Cc1nnc(SCC(=O)N2CCN(S(=O)(=O)c3ccc(Cl)cc3)CC2)[nH]c1=O	15.6%

SMILES	hERG current change (%, negative = inhibition) at 1uM
CCN(CC(=O)NC1CCS(=O)(=O)C1)C(=O)c1cc(OC)c(OC)c(OC)c1 (stereo not drawn)	7.09%
CCN(C(C)=O)c1nc(CCl)cs1	10.6%
CC(C)(C)NC(=O)COc1ccc(CNCc2ccccn2)cc1.Cl	14.6%
Cc1c(C(=O)NCC2COc3ccccc3O2)oc2ccc(S(=O)(=O)N3CCOCC3)cc12 (stereo not drawn)	-6.02%
CCOC(=O)N1CCN(C(=O)CSc2nc(=O)n3cccc(C)c3n2)CC1	3.08%
Cc1cc(N2CCOCC2)nc2ccc(NC(=O)CCC(=O)N3CCN(c4cccc(C(F)(F)F)c4)CC3)cc12	12.4%
Cc1cc(C(C)(C)C)ccc1OCCn1ccnc1.O=C(O)C(=O)O	6.53%
Cc1ccc(Cc2nc3ccccc3[nH]2)cc1	11.3%
Cc1ccc(C2CC(=O)NC3=C2C(=O)CCC3)cc1Br (stereo not drawn)	8.67%
CN(CC(=O)Nc1ccccc1Cl)C(=O)c1ccc(COc2ccccc2)cc1	5.44%
C/C(=C\c1ccccc1)CN1CCN(c2ccccc2)CC1	9.63%
N#CC1(NC(=O)CSc2nnc(-c3ccccc3F)o2)CCCCC1	4.07%
Cc1ccccc1Oc1cc(NC(=O)CCCn2nc(C)c([N+](=O)[O-])c2C)cc([N+](=O)[O-])c1	16.3%
COc1cc(NC(=O)c2cc(Cl)ccc2Cl)ccc1-c1cc2ccccc2oc1=O	5.64%
NC(=O)C1CCCc2c1n(Cc1ccccc1)c1ccccc21 (stereo not drawn)	9.63%
O=C(CNC(=O)c1sc2ccccc2c1Cl)NCc1ccccc1	3.9%
Cc1ccc(CNC(=O)c2cnc(-c3ccccn3)nc2C(F)(F)F)cc1	15%
Cc1ccc(NC(=O)CCS(=O)(=O)c2cc3c(cc2Cl)NC(=O)CO3)cc1	9.92%
COc1cccc(-c2noc(C3CCCN(C(=O)c4ccccc4OC)C3)n2)c1 (stereo not drawn)	9.27%
COc1ccccc1/C=N/OC(=O)c1ccc(F)cc1	3.2%
CCOc1ccc(CCNC(=O)C2CCCN(c3nn4c(=O)cc(C)nc4s3)C2)cc1OCC (stereo not drawn)	6.88%
